This is an account of results in PubChem BioAssay (NCI).

Structures are written as SMILES.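 Results reflect a 48-hour exposure of cells in 96-well plates to compound at five concentrations. At the GI50, growth is halved. TGI marks complete inhibition of growth.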

This test has as its system NCI-H322M lung. The experiment in a line: DTP human tumour cell line panel, 48 h.

In general, GI50 refers to the concentration giving 50% growth inhibition. As a reminder, the TGI is the concentration at which net growth stops. Low values mean greater sensitivity of the cells, high ones lower sensitivity of the cells. As for `O=C1c2c(c3c4cc(Br)ccc4[nH]c3c3ccc4ccccc4c23)C(=O)N1CCN1CCNCC1`, the GI50 is 2.1 µM and the TGI is 5.09 µM.

In the case of `O=C(Nc1ccc(Cl)cc1)Nc1nc2ccc([N+](=O)[O-])cc2s1`, the GI50 was 0.936 µM and the TGI came to 3.45 µM.
